# Assay results published in PubChem BioAssay AID938 (National Center for Advancing Translational Sciences (NCATS), 2007).
# Values joined by “and” are separate entries in the source; they are usually repeats but may differ in a detail not shown here. Equal values may be shown once. Screen size: about 73,000 compounds; about 1,800 (2.5%) were called active. The shares of active, inactive and inconclusive entries below differ from those in the screen. Calls follow the shape of the dose curve; as a rule, active = well fitted activation curve with a large enough effect; inconclusive = small, poorly fitted or top-dose-only effect; inactive = no such curve, though single readings can be large or run the other way. No potency is given beside an inconclusive call; the fits are too rough.
# Assay: qHTS Assay for Agonists of the Thyroid Stimulating Hormone Receptor: Activators of Intracellular cAMP Concentrations in Parental HEK 293; also: nearly all actives have a fitted effect of over 55% in size; as to activation: % of control where 0% means no effect
# Details: parental HEK293 CNG cAMP sensor, membrane potential fluorescence; activation: at 57.1 µM (top of the series) unless noted
# Outline: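 Counterscreen for endogenous-receptor signalling: CNG-channel HEK 293 cells report cAMP rise by membrane depolarization. After 60 min dye equilibration with 100 uM RO 20-1724, compounds incubated 30 min before bottom-read fluorescence at 590 nm.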
# Potency is read from the fitted curve at half-maximal effect; tags tell the direction and shape of the fitted curve.
SMILES,Potency,activation
COc1ccc(S(=O)(=O)N2CCN(c3c(C)cccc3C)CC2)cc1OC,"inconclusive [activator, partial curve]",–
O=c1ccnc(NCCc2ccccc2)[nH]1,–,inactive: 3.91%
COc1ccccc1OCC(=O)Nc1cccc(-c2nc3ccccc3o2)c1,active: 25.1 µM,–
COC(=O)C1=C(C)NC(C)=C([N+](=O)[O-])[C@H]1c1ccccc1C(F)(F)F,inactive,–
Cn1c(C(=O)NCc2cccnc2)cc2sc(Cl)cc21,active: 25.1 µM,–
CCN1CCN(C(=O)c2cc3c(=O)oc4ccc(C)cc4c3s2)CC1,–,inactive: 3.93%
CC1(C)CC2CC(C)(CN2c2ncnc3ccccc23)C1 (stereo unspecified),"inconclusive [activator, single point]",–
CCOC(=O)c1sc2ccc(S(=O)(=O)N3CCCCC3)cc2c1N,"inconclusive [activator, single point]",–
CC(=O)c1coc2ccc(OCC(=O)O)cc12,"inconclusive [activator, partial curve]",–
Cc1ccc(Cn2ccc(NC(=O)c3noc4c3CCCCC4)n2)cc1,"inconclusive [activator, partial curve]",–
COc1ccc(C)cc1-n1nnnc1SCC1CCCCO1 (stereo unspecified),"inconclusive [activator, partial curve]",–
CSc1nc(C)c(Cl)c(C)c1C#N,"inconclusive [activator, single point]",–
Cn1c(=O)c2c(nc(CN3CCN(CCO)CC3)n2CCc2ccccc2)n(C)c1=O,–,inactive: 0.216%
COCC(=O)Nc1sc2c(c1C(=O)OC)CCC(C)C2 (stereo unspecified),–,inactive: 12.9%
COc1ccc(-n2c(C)cc(C(=O)COC(=O)Cn3cnc4ccccc43)c2C)cc1,"inconclusive [activator, partial curve]",–
COc1ncc2nc(-c3cccs3)c(=O)n(Cc3ccc(F)cc3)c2n1,"inconclusive [activator, single point]",–
CC(=O)C(Sc1nn(C)c(=S)s1)C(=O)Nc1ccccc1 (stereo unspecified),active: 20 µM,–
O=C(Nc1ccccc1)[C@@]12C[C@@H]1/C(=N/O)c1ccccc1O2,"inconclusive [activator, single point]",–
Cc1cccc(N2CCN(C(=O)CCNS(=O)(=O)c3ccc4c(c3)CCC(=O)N4)CC2)c1C,–,inactive: 7.87%
CN(C)CCCN=c1c2ccccc2n(C)c2[nH]c(=O)n(C)c(=O)c12,–,inactive: -4.19% [at 11.4 µM]
COc1ccc(CN2CCN(C(=O)CC(C)C)CC2)c2ccccc12,"inconclusive [activator, single point]",–
COc1ccc2occ(C(=O)c3ccc(N=C(C)N(C)C)cc3)c2c1,"inconclusive [activator, partial curve]",–
CN(C)C(=O)C1(c2ccccc2)CCN(S(=O)(=O)c2ccccc2)CC1,"inconclusive [activator, partial curve]",–

SMILES,Potency,activation
CCN1CCN(C(=O)c2cnn3c(C(F)F)cc(-c4ccc(C)cc4)nc23)CC1,active: 15.8 µM,–
c1cncc(-c2nnc(-c3cccs3)o2)c1,–,inactive: -0.547%
CCOC(=O)c1c(C)[nH]c(C(=O)COC(=O)c2oc3ccc(OC)cc3c2C)c1C,–,inactive: 6.65%
COc1cccc(NC(=O)c2oc3ccccc3c2NC(=O)C2CC2)c1,"inconclusive [activator, single point]",–
Cc1cc(-n2c(C)cc(C(=O)CSc3ncnc4ccccc34)c2C)no1,active: 7.94 µM,–
COc1ccc(Br)cc1-c1noc(-c2ccccc2)n1,"inconclusive [activator, single point]",–
CC1=C(C(=O)Nc2ccccc2)C(c2ccc(N(C)C)cc2)NC(=O)N1 (stereo unspecified),"inconclusive [activator, single point]",–
CCCCCCCC/C=C\CCCCCCCC(N)=O,–,inactive: -0.929%
Cc1ccccc1-c1nnc(-c2ccccc2)o1,"inconclusive [activator, partial curve]",–
CC(C)C12CN3CC(C(C)C)(CN(C1)C3c1ccccc1O)C2=O (stereo unspecified),"inconclusive [activator, single point]",–
COc1ccc(OCc2nnc3n2N=C(c2ccc(Br)cc2)CS3)cc1,"inconclusive [activator, partial curve]",–
CCOC(=O)c1c(C)oc2ccc(OCC(=O)N(CC)CC)cc12,"inconclusive [activator, partial curve]",–
Cc1ccc(S(=O)(=O)N[C@H]2COC(=O)C/C=C\[C@@H](C)COC(=O)C/C=C\[C@@H]2C)cc1,–,inactive: 0.889% [at 11.4 µM] and inactive: 5.48% [at 11.4 µM]
CCCn1c(-c2ccc(F)cc2)nc2c(NCCCN(CC)CC)nc(C)nc21,"inconclusive [activator, partial curve]",–
CSc1nc(-c2ccco2)cc(-c2ccccc2)c1C#N,"inconclusive [activator, partial curve]",–
Cc1oc(-c2ccccc2F)nc1CS(=O)(=O)CC(=O)N1CCOCC1,active: 31.6 µM,–
Cc1cccc(CSC2=NCCN2C(=O)c2ccco2)c1,"inconclusive [activator, full curve]",–
Cc1ccc(S(=O)(=O)N[C@@H]2COC(=O)C/C=C\[C@H](C)COC(=O)N[C@@H](C)C(=O)C/C=C\[C@H]2C)cc1,"inconclusive [activator, single point]",–
O=C(Nn1cnnc1)c1cc2cc(Br)ccc2oc1=O,"inconclusive [activator, partial curve]",–
COc1cc(NC(=O)c2cccc3c2C(=O)N(Cc2cccnc2)C3)cc(OC)c1OC,–,inactive: 13.5%
O[C@H](CN1CCN(c2cccc(Cl)c2)CC1)C(c1ccccc1)c1ccccc1,"inconclusive [activator, partial curve, poor fit]",–
O=C(O)CN(CC(=O)O)c1ccccc1,"inconclusive [activator, single point]",–
CC(C)(C)C(=O)Nc1ccccc1N1CCN(C(=O)c2ccc(Cl)cc2)CC1,"inconclusive [activator, single point]",–
